Some of the results follow.
T1: UNK ZnF1-3 (human, UniProt Q9C0B0 31-174)
T1 sequence: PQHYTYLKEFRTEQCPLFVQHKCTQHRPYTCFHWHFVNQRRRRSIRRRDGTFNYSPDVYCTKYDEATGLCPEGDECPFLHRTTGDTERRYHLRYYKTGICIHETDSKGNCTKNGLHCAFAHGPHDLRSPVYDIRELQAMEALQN

B1: 39222270_39222390_3320_CDS_ENSG00000115904_ENST00000402219|human|control|control (ssRNA)
RNA: GGGAGUUCUACAGUCCGACGAUCAAAAGGGCUCGAAUGAUCGGAAUCAAAUACACUGCAAACAUCUGUGGUACUGGAAGCACCAGAAGCAGGCGGAGGUGUUAACGGUGUUCUUGGAGAAUUUGGUGCAGAUGCUGUACUUUCCAACAGAGGAUUGAGCAUCA
B2: chr14:59828787:59828788:+_ENSMUSG00000035469_ENSMUST00000043227|mus_mus|motif|central (ssRNA)
RNA: GGGAGUUCUACAGUCCGACGAUCGAGUGAAGAUUGGCCACUUUCCUACAUCCACCAUGACUGUGGCUUUGGACAAUUCCGGUAAAUAAGCUGACAUCUCUGCUGCGUGCUCCGGGUUCCUCCCCCGCAGGGCGGACAGCGCAGCAACAGAGGAUUGAGCAUCA
B3: chr4:76721835:76721836:+_ENSG00000138768_ENST00000264904|hu_mus|hu_hu_hu_mus_True|18_38 (ssRNA)
RNA: GGGAGUUCUACAGUCCGACGAUCGUUUGGCUGGGGUUUCUGAGACGCUCUGGAAUAUAACUCAUGUUUGCUAAUAAAUCCUAGUUUCUCUAUGAAAUCUCUUUGCCCAAUCCUCUUUCAAUCAGUUUGCUUUAGUUUCUCUUUCAACAGAGGAUUGAGCAUCA
B4: chr11:10819206:10819207:-_ENSG00000110321_ENST00000525681|hu_mus|FALSE|FALSE (ssRNA)
RNA: GGGAGUUCUACAGUCCGACGAUCUGAUGGUAGACUAUGAUUAAGACAUCACACUACAAAAACCUUAUGCAGAAGGAAACCUUACUGACGUGCUUCUGCUUUAAAUAUUGUGAAAAAACGUUACAGCGGAAUGAAUUUUCGCAGCAACAGAGGAUUGAGCAUCA
B5: chr2:225400320:225400321:-_ENSG00000036257_ENST00000409096|hu_hu|FALSE|FALSE (ssRNA)
RNA: GGGAGUUCUACAGUCCGACGAUCGUUCUCCACAUUAUUUUGUUGUACAUACACACGGUCCAUGUACAUUAGUAUGUCUCUAAUCAUCACCAUAGCUGUUUGAUGAUCAUUCCAAGCUUGAUUUAGCGUUUGAAGAAAGUUGUUCAACAGAGGAUUGAGCAUCA
B6: chr1:244855233:244855234:+_ENSG00000121644_ENST00000302550|hu_mus|hu_hu_hu_mus_True|28_58 (ssRNA)
RNA: GGGAGUUCUACAGUCCGACGAUCCAUCAGAUGGUAGGCGUUGCCCUUAUACUCUUUCCCCAGUUCUUCUACAAUUUUUUCUAUAUCAUCUUCUAGAAAGUCCGUACUCCCUAAAACAACAGCUUCUUUAAAUUUAAAUGUUUCCAACAGAGGAUUGAGCAUCA
B7: 3699308_3700660_1297_CDS_ENSG00000130764_ENST00000378251|human|control|control (ssRNA)
RNA: GGGAGUUCUACAGUCCGACGAUCAUCCAGCAAGUGAAGGUAUCUGUGCAGGCCCGACACACUCUGCCGCUUCUUCUGCUUCCUCUGCUCCUCGGCCUCCAGCUGCAGCUGCCGCACCAGCUCCUUGGCCUUGGCUUCUUUCCGCAACAGAGGAUUGAGCAUCA
B8: chr3:88228879:88228880:-_ENSMUSG00000050144_ENSMUST00000057935|mus_mus|FALSE|FALSE (ssRNA)
RNA: GGGAGUUCUACAGUCCGACGAUCAUAUCCACUGCCUCCUCGACAGGUUGAACCUUAGGUACCUCUGAUCCUUCAAGACACCUAAGCACCGUGGUCGCUUUCCUUCUCAGACCCCAGCGCUUUAGCCGCGUCUGAGACUGGGACCAACAGAGGAUUGAGCAUCA
B9: chr11:86538636:86538637:-_ENSMUSG00000047126_ENSMUST00000103186|perfect_dup|FALSE|FALSE (ssRNA)
RNA: GGGAGUUCUACAGUCCGACGAUCUAACCAUUUCUCCAAAAGCUGUUUUCGCCCUUGCUGAAGUACAGGCCUACAAAGCUCUAAGGAUUCGUAUUUGUUGAGCUGUCCCUGGUCCAAAAGGAUACCAAAGUACUGAAGUAGAGGCAACAGAGGAUUGAGCAUCA
B10: chr3:90056536:90056537:+_ENSMUSG00000052310_ENSMUST00000015467|mus_hu|FALSE|FALSE (ssRNA)
RNA: GGGAGUUCUACAGUCCGACGAUCUCCUUAUGUAUAGUGUCCAACCUCUGAUUCUAGCAGUCAAGUGUCUUCCCCAAUCCUAAUGUCCCCUGAUAUGUCUCUAGCGACUUGACCAUCUCUUGUUCCUUGGGACUGGGGCCAGCCCAACAGAGGAUUGAGCAUCA
B11: chr20:42825305:42825306:-_ENSG00000132823_ENST00000255174|hu_hu|FALSE|FALSE (ssRNA)
RNA: GGGAGUUCUACAGUCCGACGAUCAUUAAAUCAGAGACGGUUUAAAUCAGUCUUGUAACUUCUAAUAUUCUGGGCUGGCAACUACAGCAUGACAAAUGUUUAGUGCAGUUACAAAAUCACAUUUUACUUUCCUUGGCUAGCAAACAACAGAGGAUUGAGCAUCA
B12: chr17:35975015:35975016:-_ENSMUSG00000001525_ENSMUST00000001566|mus_hu|FALSE|FALSE (ssRNA)
RNA: GGGAGUUCUACAGUCCGACGAUCAUCUGGUUGCCACACUGACCAGCCUGGAUGUGCACGAUUUCCCUCAUGGUUAAAAUUUAAUUUUUUUGCUCGCCUCAAGGUAUGUAUGGGGCAAGAAAAUAAGUAAUUUUUUUUCUCCGCCAACAGAGGAUUGAGCAUCA
B13: chr3:176740097:176740098:-_ENSG00000177565_ENST00000430069|hu_mus|hu_hu_hu_mus_True|18_48 (ssRNA)
RNA: GGGAGUUCUACAGUCCGACGAUCUGUUUUGUAUACCACAAAAGGAGGCACUUUCAGUAUCUGCAAAAGGUGUUUAGUCCUAAAACAUACUUACCUAGAGGAUAACUCAGGAAAACAUCAAUACAAUCUCUAAGACCUACUCCACAACAGAGGAUUGAGCAUCA
B14: chr4:76721835:76721836:+_ENSG00000138768_ENST00000264904|hu_mus|hu_hu_hu_mus_True|8_38 (ssRNA)
RNA: GGGAGUUCUACAGUCCGACGAUCGUUUGGCUGGGGUUUCUGAGACGCUCUGGAAUAUAACUCAUGUUUGCUAAUAAAUCCUAGUUUCUCUAUGAAAUCUCUUUGCCCAAUCCUCUUCUCUAUUAGUGUUUUAGCUUUCUCUUUCAACAGAGGAUUGAGCAUCA

The binders below were run against T1, UNK ZnF1-3 (assay: nsRBNS (natural sequence RNA bind-n-seq); RBNS binding buffer (assumed for nsRBNS): 25 mM Tris pH 7.5, 150 mM KCl, 3 mM MgCl2, 0.01% Triton X-100, 500 ug/ml BSA, 20 U/ml SUPERase-In, 4 C; UNK is unkempt and MSI1 is Musashi-1; names of the RNAs are library labels; protein concentration not given here; high values mean tight binding).

Binder	binding signal
B1	1.17 enrichment R
B2	1.21 enrichment R
B3	0.446 enrichment R
B4	0.952 enrichment R
B5	0.505 enrichment R
B6	1.49 enrichment R
B7	0.701 enrichment R
B8	0.592 enrichment R
B9	0.908 enrichment R
B10	0.662 enrichment R
B11	0.802 enrichment R
B12	0.844 enrichment R
B13	0.874 enrichment R
B14	0.471 enrichment R

— article PMC12136788
